# According to PubChem BioAssay (Tox21):
# Where “and” joins values, the source holds several entries; their conditions need not be identical. Identical values can stand only once. The shares of active, inactive and inconclusive entries below differ from those in the screen. For part of these data: Potencies of inconclusive entries are doubtful fits and often do not repeat. Where a structure was tested more than once in an assay, its records may differ in their call. Calls of active or inactive are those of the source. Unless noted, calls follow the shape of the dose curve; as a rule, active = well fitted curve in the direction sought with a large enough effect in the repeat runs; inconclusive = weak or mixed curves; inactive = no such curve, though single readings can be large; an effect the other way counts as inactive or inconclusive.
# Experiments:
# [1] = molecular target: Bile acid receptor (Homo sapiens) (UniProt Q96RI1); test: qHTS assay to identify small molecule antagonists of the farnesoid-X-receptor (FXR) signaling pathway (AID 743217; active = well fitted inhibition curve with a large enough effect in the signal ratio in the repeat runs, not every such curve was filed as active; inconclusive = weak or mixed curves, or effect the other way; inactive = no such curve, though single readings can be large or run the other way; the % refers to the signal ratio; also: potency is read from the fitted curve at half-maximal effect); details: HEK293T FXR-UAS-bla, beta-lactamase ratio, CDCA-stimulated, 16 h; activity change, negative = inhibition: at 62.6 µM (top of the series) unless noted
# How it was run: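 FRET fluorescence after 2 h room-temperature LiveBLAzer loading gives the readout. Prior step: FXR-bla HEK 293T cells, seeded and incubated 5 h, received test compounds plus 50 uM final CDCA for 16 h at 37 °C.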
# [2] = molecular target: Vitamin D3 receptor (Homo sapiens) (UniProt P11473); test: qHTS assay to identify small molecule antagonists of the vitamin D receptor (VDR) signaling pathway (AID 743223; active = well fitted inhibition curve with a large enough effect in the signal ratio in the repeat runs, not every such curve was filed as active; inconclusive = weak or mixed curves, or effect the other way; inactive = no such curve, though single readings can be large or run the other way; the % refers to the signal ratio; also: potency is read from the fitted curve at half-maximal effect; as to activity change, negative = inhibition: % is scaled to controls: 0 for no effect and ±100 for the full control effect); details: VDR-UAS-bla HEK293T, beta-lactamase FRET ratio, 16 h; activity change, negative = inhibition: at 61 µM (top of the series) unless noted
# How it was run: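 Antagonist mode uses 1alpha,25-dihydroxyvitamin D3 at 3 nM final as stimulus. VDR-bla cells receive compounds in DMSO, incubate 16 h at 37C, then a beta-lactamase FRET substrate for 2 h at room temperature before fluorescence measurement.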
# [3] = qHTS assay to identify small molecule antagonists of the retinoid-related orphan receptor gamma (ROR-gamma) signaling pathway - cell viability counter screen (AID 1159520); also: nearly all actives have a fitted effect of over 50% in size; also: potency is read from the fitted curve at half-maximal effect
# How it was run: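 Cytotoxicity was read from cellular ATP (CellTiter-Glo luminescence) after 16 hr at 37 C with 1 uM doxycycline induction. The inducer was added 2 hr after compound transfer to Tet-on ROR gamma CHO cells.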
# [4] = molecular target: Nuclear receptor ROR-gamma (Homo sapiens) (UniProt P51449); test: qHTS assay to identify small molecule antagonists of the retinoid-related orphan receptor gamma (ROR-gamma) signaling pathway (AID 1159521; also: nearly all actives have a fitted effect of over 50% in size; also: potency is read from the fitted curve at half-maximal effect)
# How it was run: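 CHO Tet-on RORγ, RORE-luc reporter. Cpd 2 h pre-incubation, then dox hyclate 1 uM final, 16 h, 37 C/5% CO2. ONE-Glo luminescence; decrease = antagonist.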
# [5] = molecular target: Retinoic acid receptor RXR-alpha (Homo sapiens) (UniProt P19793); test: qHTS assay to identify small molecule agonists of the RXR signaling pathway (AID 1159527; calls by dose curve; also: nearly all actives have a fitted effect of over 35% in size; also: potency is read from the fitted curve at half-maximal effect; as to activation: % is scaled to controls: 0 for no effect and ±100 for the full control effect); details: HEK293T RXRa-UAS-bla, beta-lactamase ratio, 16 h; activation: at 76.8 µM (top of the series) unless noted
# How it was run: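 Read-out: beta-lactamase FRET ratio (405 nm excitation, 460 and 530 nm emission) after 2 hr substrate loading at room temperature. Cells were RXR-alpha-UAS-bla HEK 293T treated with compounds for 16 hr in 2% charcoal-stripped FBS medium.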
# [6] = molecular target: Peroxisome proliferator-activated receptor delta (Homo sapiens) (UniProt Q03181); test: qHTS assay to identify small molecule antagonists of the peroxisome proliferator-activated receptor delta (PPARd) signaling pathway (AID 743215; active = well fitted inhibition curve with a large enough effect in the signal ratio in the repeat runs, not every such curve was filed as active; inconclusive = weak or mixed curves, or effect the other way; inactive = no such curve, though single readings can be large or run the other way; the % refers to the signal ratio;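 also: cells stimulated with agonist L165041 at 300 nM final during compound exposure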; also: potency is read from the fitted curve at half-maximal effect); details: HEK293H PPARd-UAS-bla, beta-lactamase FRET ratio, antagonist, 17 h; ratio activity, negative = inhibition: at 62 µM (top of the series) unless noted
# How it was run: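 Fluorescence from cleaved LiveBLAzer B/G FRET substrate (2 h, room temperature) reports PPARd-driven beta-lactamase in HEK293H UAS-bla cells. Cells had been treated 17 h at 37 C with compound plus 300 nM final L165041.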
# [7] = qHTS assay to identify small molecule antagonists of the farnesoid-X-receptor (FXR) signaling pathway - cell viability counter screen (AID 743221; active = well fitted cell-killing curve with a large enough effect in the repeat runs, not every such curve was filed as active; inconclusive = weak or mixed curves, or effect the other way; inactive = no such curve, though single readings can be large or run the other way; also: nearly all actives have a fitted effect of over 50% in size; also: potency is read from the fitted curve at half-maximal effect); details: FXR-bla HEK293T viability, CellTiter-Glo luminescence, 16 h; activity change, negative = cytotoxicity: at 62.6 µM (top of the series)
# How it was run: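 Luminescence from CellTiter-Glo measures cytotoxicity in GeneBLAzer FXR-UAS-bla HEK 293T cells. Cells were exposed to compounds with 50 uM chenodeoxycholic acid (final) for 16 h at 37 C, in wells also used for the reporter readout.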
# [8] = molecular target: Vitamin D3 receptor (Homo sapiens) (UniProt P11473); test: qHTS assay to identify small molecule agonists of the vitamin D receptor (VDR) signaling pathway (AID 743222; calls by dose curve; also: % is scaled to controls: 0 for no effect and ±100 for the full control effect); details: HEK293T VDR-UAS-bla, beta-lactamase FRET ratio, 16 h
# How it was run: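 Following 4 h attachment at 37C, VDR-bla cells (2,000 per well) received DMSO-dissolved compounds or controls. After 16 h incubation, LiveBLAzer B/G FRET substrate was added and fluorescence read 2 h later at room temperature.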
# [9] = qHTS assay to identify small molecule antagonists of the vitamin D receptor (VDR) signaling pathway - cell viability counter screen (AID 743225); details: VDR-bla HEK293T viability, CellTiter-Glo luminescence, 16 h; viability change, negative = cytotoxic: at 61 µM (top of the series) unless noted; also: nearly all actives have a fitted effect of over 50% in size; also: potency is read from the fitted curve at half-maximal effect; as to viability change, negative = cytotoxic: % is scaled to controls: 0 for no effect and ±100 for the full control effect
# How it was run: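 Read-out: CellTiter-Glo luminescence measured 30 min after reagent addition at room temperature. Cells were VDR-bla HEK 293T exposed 16 h at 37C, 5% CO2, to compound with 3 nM final calcitriol agonist.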
# [10] = qHTS assay to identify small molecule agonists of the AP-1 signaling pathway - cell viability counter screen (AID 1159525; calls by dose curve; also: nearly all actives have a fitted effect of over 55% in size; also: potency is read from the fitted curve at half-maximal effect)
# How it was run: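 Intracellular ATP by Cell Titer Glo luminescence (30 min, RT) in the same ME-180 AP-1-bla wells after the 5 h compound exposure at 37 °C. Normalised to tetra n-octyl ammonium bromide and DMSO controls.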
# [11] = qHTS assay to identify small molecule agonists of the AP-1 signaling pathway (AID 1159526; calls by dose curve; also: potency is read from the fitted curve at half-maximal effect); details: ME-180 (cervical carcinoma) AP-1-bla reporter, beta-lactamase FRET ratio, 5 h; activation: at 76.8 µM (top of the series) unless noted
# [12] = qHTS assay to identify small molecule agonists of the RXR signaling pathway - cell viability counter screen (AID 1159529)
# How it was run: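 HEK 293T RXRa-bla cells, 2% CS-FBS; 5 h settle; cpd 16 h 37 C, 5% CO2; CellTiter-Glo 30 min RT, luminescence. Tetraoctyl ammonium bromide as positive control.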
# [13] = qHTS assay to identify small molecule antagonists of the peroxisome proliferator-activated receptor delta (PPARd) signaling pathway - cell viability counter screen (AID 743213); details: PPARd-bla HEK293H viability, CellTiter-Glo luminescence, 17 h; viability change, negative = cytotoxic: at 62 µM (top of the series) unless noted; also: nearly all actives have a fitted effect of over 50% in size; also: potency is read from the fitted curve at half-maximal effect
# How it was run: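 Viability counter-screen, qHTS format: PPARd-bla HEK293H, L165041 300 nM final, 17 h compound exposure at 37 C, CellTiter-Glo luminescence after 30 min RT.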
# [14] = molecular target: Bile acid receptor (Homo sapiens) (UniProt Q96RI1); test: qHTS assay to identify small molecule agonists of the farnesoid-X-receptor (FXR) signaling pathway (AID 743220; active = well fitted activation curve with a large enough effect in the signal ratio in the repeat runs, not every such curve was filed as active; inconclusive = weak or mixed curves, or effect the other way; the % refers to the signal ratio; also: potency is read from the fitted curve at half-maximal effect); details: HEK293T FXR-UAS-bla, beta-lactamase FRET ratio, 16 h; activation: at 62.6 µM (top of the series) unless noted
# How it was run: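 FXR-UAS-bla HEK 293T cells carrying a UAS-driven beta-lactamase reporter were plated for 5 h at 37C/5% CO2, then exposed to DMSO-dissolved Tox21 10K compounds for 16 h at 37C. A LiveBLAzer B/G FRET substrate was loaded for 2 h at room temperature before fluorescence reading.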
# [15] = qHTS assay to identify small molecule agonists of the vitamin D receptor (VDR) signaling pathway - cell viability counter screen (AID 743224); details: VDR-bla HEK293T viability, CellTiter-Glo luminescence, 16 h; activity change, negative = cytotoxicity: at 62.6 µM (top of the series)
# How it was run: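 In parallel with the bla FRET readout, cytotoxicity toward VDR-bla cells after 16 h compound exposure was assessed by CellTiter-Glo, with luminescence recorded after a 30 min room-temperature incubation.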
# [16] = qHTS assay to identify small molecule antagonists of the retinoid acid receptor (RAR) signaling pathway - cell viability counter screen (AID 1159551); also: potency is read from the fitted curve at half-maximal effect; nearly all actives have a fitted effect of over 35% in size
# How it was run: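 Viability of C3RL4 cells is quantified from ATP by luminescence after 6 h treatment at 37 C with compounds and 1 uM retinol.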
# [17] = molecular target: Peroxisome proliferator-activated receptor delta (Homo sapiens) (UniProt Q03181); test: qHTS assay to identify small molecule agonists of the peroxisome proliferator-activated receptor delta (PPARd) signaling pathway (AID 743212; calls by dose curve;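 also: HEK293H cells with PPARd UAS beta-lactamase reporter GeneBLAzer system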; also: potency is read from the fitted curve at half-maximal effect); details: HEK293H PPARd-UAS-bla, beta-lactamase FRET ratio, 17 h; activation: at 62.6 µM (top of the series) unless noted
# How it was run: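 Beta-lactamase reporter readout: a ratiometric FRET signal from the LiveBLAzer substrate after 2 h at room temperature. Compound exposure at 37 °C in PPARδ-bla HEK293H cells driven by an upstream activator sequence.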
# [18] = qHTS assay to identify small molecule agonists of the farnesoid-X-receptor (FXR) signaling pathway - cell viability counter screen (AID 743218); details: FXR-bla HEK293T viability, CellTiter-Glo luminescence, 16 h; viability change, negative = cytotoxic: at 62.6 µM (top of the series) unless noted; also: potency is read from the fitted curve at half-maximal effect; nearly all actives have a fitted effect of over 45% in size
# How it was run: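 Readout: CellTiter-Glo luminescence, 30 min RT, multiplexed after the FXR-bla FRET reading. HEK 293T FXR-UAS-bla cells received compound 5 h post-plating and were incubated 16 h at 37 C.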
# [19] = activation: at 63.5 µM (top of the series) unless noted
# Tags tell the direction and shape of the fitted curve or compound fluorescence and quenching.
# UniProt P19793, sequence (P19793 whole entry, looked up): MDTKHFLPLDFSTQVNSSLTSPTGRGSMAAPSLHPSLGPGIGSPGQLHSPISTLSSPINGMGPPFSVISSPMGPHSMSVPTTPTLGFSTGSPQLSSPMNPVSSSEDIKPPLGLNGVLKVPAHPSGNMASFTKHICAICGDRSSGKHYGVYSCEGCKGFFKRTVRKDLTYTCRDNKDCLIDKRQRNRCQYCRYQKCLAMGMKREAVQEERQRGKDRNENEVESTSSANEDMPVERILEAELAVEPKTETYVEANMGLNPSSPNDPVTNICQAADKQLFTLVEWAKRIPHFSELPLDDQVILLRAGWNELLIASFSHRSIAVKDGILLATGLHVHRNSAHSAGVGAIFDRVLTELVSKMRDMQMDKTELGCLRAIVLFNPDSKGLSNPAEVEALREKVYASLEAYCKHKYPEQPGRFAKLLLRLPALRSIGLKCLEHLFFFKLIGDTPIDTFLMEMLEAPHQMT
# UniProt Q03181, sequence (Q03181 whole entry, looked up): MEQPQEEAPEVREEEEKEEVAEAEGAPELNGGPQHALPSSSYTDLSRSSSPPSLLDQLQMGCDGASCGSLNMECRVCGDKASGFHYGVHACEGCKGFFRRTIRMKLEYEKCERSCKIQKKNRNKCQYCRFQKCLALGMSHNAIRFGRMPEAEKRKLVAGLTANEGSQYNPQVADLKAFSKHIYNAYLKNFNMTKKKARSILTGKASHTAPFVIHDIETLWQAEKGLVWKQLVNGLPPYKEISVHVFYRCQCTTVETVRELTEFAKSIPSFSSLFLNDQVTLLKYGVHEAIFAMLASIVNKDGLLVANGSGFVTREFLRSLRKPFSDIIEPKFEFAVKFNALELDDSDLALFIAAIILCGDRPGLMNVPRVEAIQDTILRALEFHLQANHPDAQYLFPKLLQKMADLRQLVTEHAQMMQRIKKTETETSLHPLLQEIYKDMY
# UniProt Q96RI1, sequence (Q96RI1 whole entry, looked up): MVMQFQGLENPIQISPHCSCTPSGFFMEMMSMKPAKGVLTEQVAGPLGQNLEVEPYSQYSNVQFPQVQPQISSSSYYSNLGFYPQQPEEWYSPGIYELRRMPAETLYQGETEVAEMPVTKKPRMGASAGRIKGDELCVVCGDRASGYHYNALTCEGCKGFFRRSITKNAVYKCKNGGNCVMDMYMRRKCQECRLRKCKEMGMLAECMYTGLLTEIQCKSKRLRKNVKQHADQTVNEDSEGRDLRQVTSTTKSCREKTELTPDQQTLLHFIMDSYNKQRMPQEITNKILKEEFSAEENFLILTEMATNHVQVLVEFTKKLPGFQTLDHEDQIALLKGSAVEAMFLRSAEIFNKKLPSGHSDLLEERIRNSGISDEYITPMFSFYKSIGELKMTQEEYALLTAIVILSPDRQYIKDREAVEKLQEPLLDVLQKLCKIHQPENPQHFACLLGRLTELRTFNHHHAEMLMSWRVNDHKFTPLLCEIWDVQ
# UniProt P11473, sequence (P11473 whole entry, looked up): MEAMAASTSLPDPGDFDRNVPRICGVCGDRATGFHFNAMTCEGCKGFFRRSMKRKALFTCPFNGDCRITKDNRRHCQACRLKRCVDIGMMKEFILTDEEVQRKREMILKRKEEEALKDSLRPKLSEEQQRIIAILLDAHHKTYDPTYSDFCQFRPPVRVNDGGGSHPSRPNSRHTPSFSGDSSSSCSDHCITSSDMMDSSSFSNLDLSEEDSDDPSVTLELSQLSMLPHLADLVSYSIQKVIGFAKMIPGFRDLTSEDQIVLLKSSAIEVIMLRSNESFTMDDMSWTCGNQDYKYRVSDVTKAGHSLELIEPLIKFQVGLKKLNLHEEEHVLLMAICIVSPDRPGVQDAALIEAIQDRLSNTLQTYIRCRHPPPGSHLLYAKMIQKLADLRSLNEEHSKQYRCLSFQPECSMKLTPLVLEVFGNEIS
structure (smiles),measurement,setting,value
O=Cc1ccc(Cl)c([N+](=O)[O-])c1,Potency,[1],"inconclusive: 54.9 µM [inhibitor, single point]"
same,"activity change, negative = inhibition",[2],inconclusive: -1.03%
same,Potency,[3],inactive
same,Potency,[4],active: 54.5 µM
same,activation,[5],inconclusive: -33.6%
O=c1[nH]cc(F)c(=O)[nH]1,Potency,[6],inconclusive: 19.9 µM [fluorescent]
same,Potency,[7],"inconclusive: 0.794 µM [falling, full curve, poor fit]"
same,activation,[8]; at 63.5 µM (top of the series),inconclusive: 0.604%
same,activation,[8]; at 81.1 µM (top of the series),inactive: 10.3% and inconclusive: 23.7%
same,Potency,[9],inactive
same,Potency,[3],"inconclusive: 63.4 µM [cytotoxic, partial curve, poor fit]"
same,Potency,[4],active: 4.49 µM
same,Potency,[10],"inconclusive: 36 µM [cytotoxic, partial curve]"
same,Potency,[11],"inconclusive: 16.1 µM [falling, full curve]"
same,activation,[11],inconclusive: 17.3% [at 35.3 µM]
same,Potency,[12],active: 45.3 µM
Sc1nc2ccccc2s1,Potency,[13],"inconclusive: 17.4 µM [cytotoxic, partial curve, poor fit]"
same,Potency,[6],active: 38.9 µM
same,Potency,[14],"inconclusive: 43.6 µM [activator, partial curve, poor fit]"
same,Potency,[2],inactive
same,Potency,[3],"inconclusive: 77 µM [cytotoxic, partial curve, poor fit]"
same,Potency,[4],"inconclusive: 68.6 µM [inhibitor, single point]"
same,Potency,[11],inconclusive: 54.9 µM
same,activation,[5],inconclusive: -25.1%
Cn1sccc1=O,activation,[14],inconclusive: 11.3%
same,activation,[8]; [19],inconclusive: -21.5%
same,Potency,[15],inconclusive: 54.9 µM [cytotoxic]
same,Potency,[3],"inconclusive: 27.3 µM [cytotoxic, partial curve, poor fit]"
same,Potency,[4],"inconclusive: 68.6 µM [inhibitor, single point]"
same,Potency,[10],"inactive and inconclusive: 61.6 µM [cytotoxic, single point]"
same,Potency,[11],inconclusive: 11 µM [full curve] and inconclusive: 6.92 µM [activator]
same,Potency,[5],inconclusive: 24.5 µM [inhibitor]
same,activation,[5],inconclusive: -16.7%
same,Potency,[16],"inconclusive: 61.1 µM [cytotoxic, partial curve]"
O=c1[nH]c2ccccc2n1CCCN1CCN(C(c2ccccc2)c2ccccc2)CC1,activation,[17],inconclusive: -14.2%
same,Potency,[1],"inconclusive: 23.7 µM [rising, partial curve, poor fit]"
same,Potency,[18],active: 26.6 µM
same,activation,[14],inconclusive: 0.117%
same,activation,[8]; [19],inconclusive: -32%
same,Potency,[3],"inconclusive: 33.5 µM [cytotoxic, partial curve, poor fit]"
same,Potency,[4],"inconclusive: 21.1 µM [inhibitor, partial curve, poor fit]"
same,Potency,[5],"inconclusive: 7.56 µM [rising, partial curve, poor fit]"
same,Potency,[12],"inconclusive: 23.9 µM [cytotoxic, partial curve]"
NC(=O)NC(N)=O,Potency,[13],inactive
same,Potency,[18],"inconclusive: 0.0353 µM [rising, full curve, poor fit]"
same,Potency,[7],inactive
same,Potency,[3],inactive
same,Potency,[4],inactive
same,activation,[5],inconclusive: 16.9%
Cc1c(C(=O)NN2CCCCC2)nn(-c2ccc(Cl)cc2Cl)c1-c1ccc(Cl)cc1,Potency,[17],"inconclusive: 33.5 µM [rising, partial curve, poor fit]"
same,Potency,[13],"inconclusive: 33.5 µM [cytotoxic, single point]"
same,"ratio activity, negative = inhibition",[6],inconclusive: -74.9%
same,Potency,[1],inconclusive: 33.5 µM [single point]
same,Potency,[18],active: 33.5 µM
same,Potency,[7],"inconclusive: 29.8 µM [falling, partial curve, poor fit]"
same,activation,[8]; [19],inconclusive: -47.6%
same,Potency,[2],"inconclusive: 26.8 µM [fluorescent, partial curve]"
same,Potency,[15],"inconclusive: 23.7 µM [cytotoxic, partial curve, poor fit]"
same,Potency,[9],"inconclusive: 21.3 µM [cytotoxic, partial curve]"
same,Potency,[3],inconclusive: 33.5 µM [cytotoxic]
same,Potency,[4],inconclusive: 29.8 µM [inhibitor]
same,Potency,[11],inactive
same,Potency,[5],"inconclusive: 23.9 µM [rising, partial curve]"
